In PubChem BioAssay AID1362 (SRMLSC, 2008):
Some of the results follow. The main result of the screen is listed elsewhere. These columns were measured beside it and carry no call. Compounds called inactive in the main read-out are mostly missing here.

Test: growth inhibition of WT strain, primary screen, mitochondrial fusion inhibitor project, WT and mutant strains, chemical genetic (AID 1362); note: tested in S. cerevisiae
Conditions: mitochondrial fusion phenotypic screen, at 10 µM

SMILES	inhibition
COc1ccc(CNCc2cn(-c3cccc(F)c3)nc2-c2ccc(C)o2)cc1	45.1%
O=C(NC(=S)Nc1ccc(S(=O)(=O)NC2CCCCC2)cc1)c1cccs1	3.11%
CCOC(=O)c1c(C)[nH]c(C2=NNC(=Nc3cccc(Cl)c3)SC2)c1C	35.2%
COc1ccc(C(=O)/C=C/C(=O)N(CC(=O)NC2CCCCC2)Cc2cccs2)c(O)c1	17.2%
CCCC[C@@H]1C[C@H]1[C@@H](NC(=O)c1cccs1)c1ccc(Cl)cc1	3.03%
NS(=O)(=O)c1ccc(N2N=C(c3ccccc3)CC2c2cccc(F)c2)cc1 (stereo not given)	62%
S=C(NCc1ccco1)Nc1ccc(Oc2ccccc2)cc1	31.3%
CCCc1cc(-c2nc(-c3ccc(Cl)cc3)cs2)ccn1	55.1%
c1ccc2c(c1)ncn2CCCCOc1ccc2c(c1)CCC2	66.4%
CC(C)c1ccc(NC(=O)c2cc(S(=O)(=O)NCC3COc4ccccc4O3)ccc2F)cc1 (stereo not given)	28.8%
Cc1c(Cl)ccc2c(C(=O)NCCN3CCCCC3)cc(-c3ccccn3)nc12	93.3%
N#CC(c1ccc(Cl)cc1)(c1ncc(C(F)(F)F)cc1Cl)N1CCOCC1 (stereo not given)	13.8%
Cc1cc(-c2sccc2C)nc(-n2cccc2)n1	-55.4%
C=CCn1c(COc2ccccc2-c2ccccc2)nnc1SCC(=O)NC(=O)NCc1ccco1	6.6%
COc1ccc(NC(=O)c2oc3ccccc3c2NC(=O)COc2ccccc2OC)c(OC)c1	-8.04%
CCc1ccccc1NCC(=O)Nc1ccc(Cl)c(C(F)(F)F)c1	78.5%
O=C(Nc1nc2ccccc2n1CCOc1ccc(Cl)cc1)c1ccco1	36.4%
Cc1ccc(C(=O)N2c3ccccc3N(Cc3ccccc3)C(=O)C2(C)C)cc1	56.2%
CN(C)/C=C(/C#N)C(=O)c1cccc(Oc2ccc(C(C)(C)C)cc2)c1	29.2%
Cc1cc(C)n(CC(O)CN2c3ccccc3Sc3ccccc32)n1 (stereo not given)	45.9%
CCCCCCCOC(=O)c1nc(Cl)c(Cl)c(N)c1Cl	24.7%
CC1=NOC(=O)/C1=C\c1ccc(-c2ccccc2Br)o1	70.2%
Cc1ccc(NC(=S)Nc2cccc3cnccc23)cc1C	50.2%
O=C(CCc1nc(-c2ccccc2)no1)NCCc1ccccc1	-2.54%

SMILES	inhibition
CNC(=O)c1ccsc1NC(=O)c1ccc2c(c1)CCCC2	57.8%
CCCCc1ccc(NC(=S)N2CCCC(C)C2)cc1 (stereo not given)	64%
CCCc1ccc(-c2cc(C(=O)NC3=NCCS3)c3ccccc3n2)cc1	75.6%
COc1cc(-c2nnc(SCc3c(F)cccc3Cl)o2)cc(OC)c1OC	16.9%
C=CCSc1nnc(-c2cc3c(s2)-c2ccccc2CC3)o1	45%
O=C1c2cccc3cccc(c23)C(=O)N1CCCN1CCN(c2ccc(F)cc2)CC1	40.9%
c1cncc(-c2nc(NCC3COc4ccccc4O3)c3ccccc3n2)c1 (stereo not given)	43.7%
CCCN1C(=O)/C(=C\C=C2/C=CN(CC)c3ccccc32)SC1=S	46.5%
Cc1ccc(NS(=O)(=O)c2ccc(C3CCCCC3)cc2)cc1	31.6%
CCCN(CCC)C(=O)CC(c1ccccc1)c1cc(Br)ccc1O (stereo not given)	22.2%
O=C1CSC(c2ccccc2Br)N1c1ccc(Cl)cn1 (stereo not given)	34.9%
O=C(Nc1ccc(Cl)c([N+](=O)[O-])c1)C(Sc1ccccc1)c1ccccc1 (stereo not given)	72.7%
O=C(Nc1ccc(Cl)cc1)c1ccc2c(c1)OCO2	8.92%
O=C1S/C(=C\c2ccc(O)c([N+](=O)[O-])c2)C(=O)N1c1ccccc1Cl	54.3%
Cc1ccc(CNc2nc(-c3cccs3)nc3ccccc23)cc1	35.8%
Cc1nc(N2N=C3/C(=C/c4ccc(F)cc4)CCCC3C2c2ccc(F)cc2)sc1C(=O)N(C)C (stereo not given)	43.4%
O=C(CCc1ccccc1)NC(=S)Nc1cccc(Br)c1	0.62%
N/C(Cc1ccccc1)=N\OC(=O)c1cccc2ccccc12	21.3%
NC(=S)N/N=C\c1c(OCc2ccccc2Cl)ccc2ccccc12	55.3%
Cc1cc(Cl)ccc1OC(C)C(=O)N1CCCN(C(=O)C(C)Oc2ccc(Cl)cc2C)CC1 (stereo not given)	25.3%
CC(CCc1ccco1)NC(=O)c1cccc2c1C(=O)N(C1CCCCC1)C2 (stereo not given)	38.8%
O=C(Nc1ccccc1)OC1CC2CC1C1CCCC21 (stereo not given)	38.8%
CCOc1cc(CNCCO)cc(Br)c1OCc1ccccc1Cl	96.7%
COc1ccc(C2CC(c3ccc(Br)cc3)=NN2C(=O)c2cccnc2)cc1 (stereo not given)	-2.85%

SMILES	inhibition
COc1ccc2cc(/C=C3\SC(=S)NC3=O)c(N3CCOCC3)nc2c1	24.2%
COc1ccc(NC(=S)N(CCc2c(C)[nH]c3ccc(C)cc23)Cc2ccco2)cc1	9%
COc1cccc(N2CCN(CC(=O)Nc3ccc(SC(F)F)cc3)CC2)c1	20.1%
N#Cc1c(N)nc2c(c1-c1ccc3c(c1)OCO3)CCc1ccccc1-2	34.4%
COc1cc(CNn2cn[nH]c2=S)cc(Cl)c1OCc1ccc(F)cc1	8.54%
S=C(NCc1cccc(Cl)c1)NC1CCCCC1	49.5%
FC(F)Sc1ccc(NC(=S)NCc2ccccc2)cc1	31.7%
COc1ccc(CNC(=S)NC(C)CCc2ccccc2)cc1 (stereo not given)	66.2%
CC(C)c1ccc(-c2cc(C(=O)N3N=C(C(F)F)CC3(O)C(F)F)c3ccccc3n2)cc1 (stereo not given)	77.7%
CCc1c(C)nc(SCC(=O)c2cccs2)c(C#N)c1C	62.8%
O=C(C[n+]1cn(C(F)F)c2ccccc21)c1ccc(OC(F)F)cc1	65.2%
CNC(=S)/N=C/NOCc1ccc(Cl)cc1Cl	57.7%
COCCN(C(=S)Nc1c(C)cc(C)cc1C)C(C)c1cccs1 (stereo not given)	-6.11%
COC(=O)c1ccc2c(c1O)C(=O)c1ccccc1C2=O	50.9%
CC(C)Nc1nc(Oc2cccc(Cl)c2Cl)cc(C(F)(F)F)n1	16.8%
O=C(Nc1ccc(Cl)cc1)c1csc(Cc2ccccc2)n1	26.1%
COC(=O)c1c(NC(=O)CN2CCC3(O)CCCCC3C2c2cc(OC)ccc2OC)sc(C)c1C (stereo not given)	7.03%
CN(c1ccccc1)S(=O)(=O)c1ccc(NC(=S)NC(=O)C2CC2)cc1	53.1%
Cn1c(=O)n(CCc2ccccc2)c(=O)c2c1nc1n2CCCN1CCc1ccccc1	17.2%
C=C(C)CNC(=S)NN=C1c2ccccc2-c2ccccc21	67.3%
O=C(Nc1cc(Cl)ccc1Oc1ccccc1)c1ccc(F)cc1	-6.87%
COc1ccc(N/C=C/C(=O)c2ccc(Oc3ncccn3)cc2)cc1	-11.5%
